According to publication PMC3776750:
Results are given in words; binding and its absence hold for the method and conditions named. For some of these results: Binding seen in cells or lysates may run through a third protein. Some entries that bind do so weakly or less than the wild type. Tags and fused reporters may be left off the sequences shown.

T1: CLUC-CPL1 (Arabidopsis thaliana) (UniProt Q5YDB6)
T1 sequence: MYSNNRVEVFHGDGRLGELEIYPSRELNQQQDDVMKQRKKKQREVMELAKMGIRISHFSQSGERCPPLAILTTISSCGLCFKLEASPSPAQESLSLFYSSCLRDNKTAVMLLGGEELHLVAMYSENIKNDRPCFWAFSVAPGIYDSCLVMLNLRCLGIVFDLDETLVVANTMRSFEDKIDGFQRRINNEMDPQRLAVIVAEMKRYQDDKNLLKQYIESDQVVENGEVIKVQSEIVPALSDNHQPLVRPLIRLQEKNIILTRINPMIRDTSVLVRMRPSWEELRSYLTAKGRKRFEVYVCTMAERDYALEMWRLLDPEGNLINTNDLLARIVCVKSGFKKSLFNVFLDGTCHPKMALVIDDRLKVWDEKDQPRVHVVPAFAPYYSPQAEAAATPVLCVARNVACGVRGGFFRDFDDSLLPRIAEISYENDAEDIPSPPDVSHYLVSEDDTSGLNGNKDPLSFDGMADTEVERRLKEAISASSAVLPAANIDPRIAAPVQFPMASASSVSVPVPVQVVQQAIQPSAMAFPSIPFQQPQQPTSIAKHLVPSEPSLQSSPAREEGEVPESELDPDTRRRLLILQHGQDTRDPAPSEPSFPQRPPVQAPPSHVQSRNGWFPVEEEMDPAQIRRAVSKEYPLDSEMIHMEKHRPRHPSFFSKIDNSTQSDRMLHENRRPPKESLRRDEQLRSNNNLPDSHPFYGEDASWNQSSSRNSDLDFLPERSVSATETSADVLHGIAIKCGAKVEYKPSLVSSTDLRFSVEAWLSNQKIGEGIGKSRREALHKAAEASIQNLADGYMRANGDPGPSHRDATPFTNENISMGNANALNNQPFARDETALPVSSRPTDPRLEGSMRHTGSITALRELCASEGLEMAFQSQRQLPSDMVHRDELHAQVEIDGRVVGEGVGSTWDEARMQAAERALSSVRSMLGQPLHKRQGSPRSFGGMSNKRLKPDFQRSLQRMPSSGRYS

T2: CLUC-CPL1 699-967 (Arabidopsis thaliana) (UniProt Q5YDB6)
T2 sequence: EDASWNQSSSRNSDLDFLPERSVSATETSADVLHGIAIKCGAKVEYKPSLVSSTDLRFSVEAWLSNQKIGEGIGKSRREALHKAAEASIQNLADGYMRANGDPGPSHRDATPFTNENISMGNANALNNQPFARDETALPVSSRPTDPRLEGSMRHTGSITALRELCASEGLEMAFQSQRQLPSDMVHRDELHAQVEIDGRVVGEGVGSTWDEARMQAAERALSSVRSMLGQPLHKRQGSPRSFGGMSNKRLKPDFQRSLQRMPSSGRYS

T3: CLUC-CPL1 1-714 (Arabidopsis thaliana) (UniProt Q5YDB6)
T3 sequence: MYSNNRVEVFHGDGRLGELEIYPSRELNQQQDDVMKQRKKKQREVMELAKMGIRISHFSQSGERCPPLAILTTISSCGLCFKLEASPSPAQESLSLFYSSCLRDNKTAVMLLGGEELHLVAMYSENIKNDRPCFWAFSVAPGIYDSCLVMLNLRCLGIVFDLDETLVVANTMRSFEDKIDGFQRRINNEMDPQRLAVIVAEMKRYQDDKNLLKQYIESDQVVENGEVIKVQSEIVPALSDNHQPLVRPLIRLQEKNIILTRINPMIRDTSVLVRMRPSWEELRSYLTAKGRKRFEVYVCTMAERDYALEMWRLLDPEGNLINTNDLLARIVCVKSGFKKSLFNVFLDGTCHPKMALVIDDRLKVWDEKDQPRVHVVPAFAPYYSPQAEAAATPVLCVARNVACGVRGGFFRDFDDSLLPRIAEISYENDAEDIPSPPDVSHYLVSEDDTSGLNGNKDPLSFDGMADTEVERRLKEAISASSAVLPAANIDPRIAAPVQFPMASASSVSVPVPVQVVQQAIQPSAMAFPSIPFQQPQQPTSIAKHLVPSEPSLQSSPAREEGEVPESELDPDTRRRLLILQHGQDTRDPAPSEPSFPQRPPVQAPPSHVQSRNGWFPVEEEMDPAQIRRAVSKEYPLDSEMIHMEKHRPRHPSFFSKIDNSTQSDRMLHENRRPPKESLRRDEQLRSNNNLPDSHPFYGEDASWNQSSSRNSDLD

T4: GAL4 DNA binding domain fused with CPL1 (Arabidopsis thaliana) (UniProt Q5YDB6)
T4 sequence: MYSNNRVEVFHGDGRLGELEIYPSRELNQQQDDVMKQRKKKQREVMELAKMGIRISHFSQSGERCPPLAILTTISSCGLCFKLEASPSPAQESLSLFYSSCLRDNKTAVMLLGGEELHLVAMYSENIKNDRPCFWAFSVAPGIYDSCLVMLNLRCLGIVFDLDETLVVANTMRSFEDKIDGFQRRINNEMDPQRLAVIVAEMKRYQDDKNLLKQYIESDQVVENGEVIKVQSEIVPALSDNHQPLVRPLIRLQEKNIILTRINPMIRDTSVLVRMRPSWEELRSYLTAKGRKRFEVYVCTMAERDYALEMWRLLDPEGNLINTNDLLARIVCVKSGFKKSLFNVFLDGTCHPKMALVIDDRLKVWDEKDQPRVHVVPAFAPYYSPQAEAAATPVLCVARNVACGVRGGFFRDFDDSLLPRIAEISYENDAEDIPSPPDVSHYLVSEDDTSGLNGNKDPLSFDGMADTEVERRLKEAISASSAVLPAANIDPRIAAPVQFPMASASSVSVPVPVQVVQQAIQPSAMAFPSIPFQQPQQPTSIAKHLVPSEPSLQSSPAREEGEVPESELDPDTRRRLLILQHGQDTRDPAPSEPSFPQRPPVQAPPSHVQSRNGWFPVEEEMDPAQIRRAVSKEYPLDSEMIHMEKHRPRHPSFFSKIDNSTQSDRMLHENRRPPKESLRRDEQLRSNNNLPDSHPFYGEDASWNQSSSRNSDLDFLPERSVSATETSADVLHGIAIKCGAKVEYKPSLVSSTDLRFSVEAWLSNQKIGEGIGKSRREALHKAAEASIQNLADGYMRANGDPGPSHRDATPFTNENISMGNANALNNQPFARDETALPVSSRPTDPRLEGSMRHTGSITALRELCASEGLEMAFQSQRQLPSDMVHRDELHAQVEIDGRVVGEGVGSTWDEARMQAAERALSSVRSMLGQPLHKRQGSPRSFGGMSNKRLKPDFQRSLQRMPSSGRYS


Tests used:
[1] = biological target: T1, CLUC-CPL1 (Arabidopsis thaliana); experiment: split reporter; luciferase complementation imaging (LuCI): NLUC and CLUC fusions with P19 infiltrated by Agrobacterium into N. benthamiana leaves; luminescence imaged 3 d after infiltration
[2] = biological target: T2, CLUC-CPL1 699-967 (Arabidopsis thaliana); experiment: as above
[3] = biological target: T3, CLUC-CPL1 1-714 (Arabidopsis thaliana); experiment: as above
[4] = biological target: T4, GAL4 DNA binding domain fused with CPL1 (Arabidopsis thaliana); experiment: two-hybrid; yeast PJ69-4A, GAL4 BD (pBUTE^GW) and AD (pGAD^GW) fusions; growth on SD -ULHA at 28°C for 48 h

Row | binding [1] | binding [2] | binding [3] | binding [4] | Binder
1 | binds | binds | no binding |  | NLUC-HYL1 (HYL1 1-223) (domain or fragment, UniProt O04492 1-223) MTSTDVSSGVSNCYVFKSRLQEYAQKYKLPTPVYEIVKEGPSHKSLFQSTVILDGVRYNSLPGFFNRKAAEQSAAEVALRELAKSSELSQCVSQPVHETGLCKNLLQEYAQKMNYAIPLYQCQKVETLGRVTQFTCTVEIGGIKYTGAATRTKKDAEISAGRTALLAIQSDTKNNLANYNTQLTVLPCEKKTIQAAIPLKETVKTLKARKAQFKKKAQKGKRT
2 | binds | binds | no binding |  | NLUC-SE (SERRATE) (protein, UniProt Q9ZVD0 1-720) MADVNLPPSDSVDNRLPEKSTSSSPPPPPPSSSLPQQEQEQDQQQLPLRRERDSRERRDERDIERPPPNRRERDRSPLPPPRRDYKRRPSLSPPPPYRDRRHSPPQRRSPPQKRYRRDDNGYDGRRGSPRGGYGPPDRRFGYDHGGGYDREMGGRPGYGDERPHGRFMGRYQDWEGGRGGYGDASNSGNPQRDGLMSYKQFIQELEDDILPSEAERRYQEYKSEYITTQKRAFFNTHKEEDWLKNKYHPTNLLSVIERRNDLAQKVAKDFLLDLQSGTLDLGPAVTALNKSGRTSEPNSEDEAAGVGKRKRHGMGGAKENELLSAAPKAPSFTSDPKRILTDVEQTQALVRKLDSEKKIEENVLQGSETEKSGREKLHSGSTGPVVIIRGLTSVKGLEGVELLDTLVTYLWRVHGLDYYGKVETNEAKGLRHVRAEGKVSDAKGDENESKFDSHWQERLKGQDPLEVMAAKEKIDAAATEALDPHVRKIRDEKYGWKYGCGAKGCTKLFHAAEFVYKHLKLKHTELVTELTTKVREELYFQNYMNDPNAPGGQPATQQSGPRDRPIRRKPSMENRLRDDRGGRRERDGRANGNDRNDRSEDQQRGDNDGGNPGEVGYDAFGGQGGVHVPPFLSDINPPPMLMPVPGAGPLGPFVPAPPEVAMQMFRDPSGPNPPFEGSGRGGPAPFLLSPAFRQDPRRLRSYQDLDAPEEEVTVIDYRSL
3 |  |  |  | binds | GAL4 activation domain fused with SE (protein, UniProt Q9ZVD0 1-720) MADVNLPPSDSVDNRLPEKSTSSSPPPPPPSSSLPQQEQEQDQQQLPLRRERDSRERRDERDIERPPPNRRERDRSPLPPPRRDYKRRPSLSPPPPYRDRRHSPPQRRSPPQKRYRRDDNGYDGRRGSPRGGYGPPDRRFGYDHGGGYDREMGGRPGYGDERPHGRFMGRYQDWEGGRGGYGDASNSGNPQRDGLMSYKQFIQELEDDILPSEAERRYQEYKSEYITTQKRAFFNTHKEEDWLKNKYHPTNLLSVIERRNDLAQKVAKDFLLDLQSGTLDLGPAVTALNKSGRTSEPNSEDEAAGVGKRKRHGMGGAKENELLSAAPKAPSFTSDPKRILTDVEQTQALVRKLDSEKKIEENVLQGSETEKSGREKLHSGSTGPVVIIRGLTSVKGLEGVELLDTLVTYLWRVHGLDYYGKVETNEAKGLRHVRAEGKVSDAKGDENESKFDSHWQERLKGQDPLEVMAAKEKIDAAATEALDPHVRKIRDEKYGWKYGCGAKGCTKLFHAAEFVYKHLKLKHTELVTELTTKVREELYFQNYMNDPNAPGGQPATQQSGPRDRPIRRKPSMENRLRDDRGGRRERDGRANGNDRNDRSEDQQRGDNDGGNPGEVGYDAFGGQGGVHVPPFLSDINPPPMLMPVPGAGPLGPFVPAPPEVAMQMFRDPSGPNPPFEGSGRGGPAPFLLSPAFRQDPRRLRSYQDLDAPEEEVTVIDYRSL
